Source: PubChem BioAssay AID902 (National Center for Advancing Translational Sciences (NCATS), 2007)
The whole screen tested about 130,000 compounds, of which about 1,900 (1.5%) were called active. The shares of active, inactive and inconclusive entries below differ from those in the screen. The call rests on the fitted dose curve; in most records, active means well fitted cell-killing curve with a large enough effect; inconclusive means small, poorly fitted or top-dose-only effect; inactive means no such curve, though single readings can be large or run the other way. A potency beside an inconclusive call is a rough fit, not a confirmed value. More than one record can exist for a structure, and the calls need not agree.

Experiment: qHTS Screen for Compounds that Selectively Target Cancer Cells with p53 Mutations: Cytotoxicity of p53ts Cells at the Nonpermissive Temperature; further: nearly all actives have a fitted effect of over 55% in size
Details: H1299-p53A138V viability at 39C, ATP luminescence, 24 h; activity change, negative = cell killing: at 46.1 µM (top of the series)
On the % scale 0 is the no-effect control and ±100 the full control effect; potency means the concentration at half of the fitted maximal effect; tags describe the fitted curve by direction and shape.

Row | Compound | Potency | activity change, negative = cell killing
1 | O=C(Nc1ccc(-c2noc(COc3ccccc3Cl)n2)cc1)c1ccco1 | inconclusive: 15.8 µM [cytotoxic, single point] | –
2 | COc1ccc(-c2cc(CCCC(=O)NCc3ccccn3)no2)cc1 | inconclusive: 12.6 µM [cytotoxic, partial curve] | –
3 | CCc1nnc(NC(=O)c2nc(S(=O)(=O)Cc3ccc(C)cc3)ncc2Cl)s1 | active: 6.31 µM | –
4 | CCC(=O)N1CCc2cc(S(=O)(=O)NC(C(=O)NCCc3ccccc3)C(C)C)ccc21 (stereo not drawn) | inconclusive: 25.1 µM [cytotoxic, single point] | –
5 | Cc1cc(C(F)(F)F)n2nc(-c3ccc(Br)cc3)cc2n1 | – | inactive: -6.29%
6 | CCCCOc1ccc(-c2nn(-c3ccccc3)cc2C2NC(=O)NC(C)=C2C(=O)OCC)cc1 (stereo not drawn) | inconclusive: 15.8 µM [cytotoxic, partial curve] | –
7 | CC(NC(=O)c1ccc2c(c1)CCN2S(C)(=O)=O)c1ccccc1 (stereo not drawn) | – | inactive: 4.45%
8 | Cc1nnc(SCc2cnc(-c3ccc(C(C)C)cc3)s2)n1C | active: 2 µM | –
9 | COc1ccccc1N1CCN(c2ncnc3c2cnn3-c2cc(Cl)ccc2C)CC1 | active: 12.6 µM | –
10 | Cc1cc(C)n(-c2ccc(C(=O)OCC(=O)NCc3ccco3)cc2)n1 | – | inactive: -9.86%
11 | CN(Cc1ccco1)c1ccnc(-c2cccc(NS(C)(=O)=O)c2)n1 | inconclusive: 31.6 µM [cytotoxic, single point] | –
12 | COc1ccc(CNC(=O)Cn2c(SCC(=O)Nc3ccc(OC)cc3)nc3ccccc32)cc1 | inconclusive: 20 µM [cytotoxic, single point] | –
13 | Cc1cc(C(=O)Nc2nc3c(s2)CCCC3)cs1 | inconclusive: 12.6 µM [cytotoxic, partial curve] | –
14 | COCCN1CCN(c2cc(-c3ccccc3)nc3cc(-c4cccc(F)c4)nn23)CC1 | inconclusive: 25.1 µM [cytotoxic, partial curve, poor fit] | –
15 | O=C(c1cc2ccccc2oc1=O)N1CCN(c2ccc(N3CCOCC3)nn2)CC1 | inconclusive: 12.6 µM [cytotoxic, single point] | –
16 | COc1cc(N[C@@H](C)CCCN)c2ncccc2c1 | inconclusive: 12.6 µM [cytotoxic, single point] | –
17 | CCc1ccc(Sc2cc(C(=O)NCc3ccccc3OC)c3ccccc3n2)cc1 | inconclusive: 31.6 µM [cytotoxic, single point] | –
18 | CCC(C)C(=O)OC1C2CC3=C4CC(=O)OC(c5ccoc5)[C@]4(C)CCC3[C@@](C)(C2=O)C(CC(=O)OC)C1(C)C (stereo partly drawn) | – | inactive: 5.94%
19 | COc1cccc(Cn2c(=O)c(-c3ccc(F)cc3)nc3cncnc32)c1 | – | inactive: -20.6%
20 | CCc1nnc(SCc2cc(C)ccc2C)c2cc3sc(C)cc3n12 | – | inactive: 12.1%
21 | COc1ccc(NC(=O)C(C)n2nc(-c3ccc(C)c(C)c3)ccc2=O)cc1OC (stereo not drawn) | – | inactive: -1.37%
22 | CN(C)Cc1ccccc1-c1ccc2ncnc(N3CCOCC3)c2c1 | – | inactive: 0.297%
23 | COc1cc(OC)c(OC)cc1/C=C/c1nc2cc3ccccc3cc2c(=O)n1-c1ccc(F)cc1F | inconclusive: 15.8 µM [cytotoxic, partial curve] | –

Row | Compound | Potency | activity change, negative = cell killing
24 | Cc1ccc2c(c1)-c1cc(C)nn1C(c1cc(Br)ccc1O)N2 (stereo not drawn) | inconclusive: 20 µM [cytotoxic, single point] | –
25 | COc1ccc(C2c3c(n(C)c4ccccc34)C(=O)N2CC(=O)Nc2ccc(C)c(Cl)c2)cc1 (stereo not drawn) | inconclusive: 0.708 µM [cytotoxic, full curve, poor fit] | –
26 | COc1ccc(CCN2CCC(Nc3nc4ccccc4n3Cc3ccc(F)cc3)CC2)cc1 | active: 12.6 µM | –
27 | Cc1ccc(-c2nc(SCCOc3ccccc3C)n3[nH]c(=O)cc3n2)cc1 | inconclusive: 31.6 µM [cytotoxic, single point] | –
28 | CC(=O)Nc1cc(OC(C)=O)c2nonc2c1OC(C)=O | active: 7.94 µM | –
29 | Cc1cc2c(N=O)c(NO)ccc2[nH]1 | inconclusive: 25.1 µM [cytotoxic, single point] | –
30 | COc1ccc2c(c1)c1nc3ccccc3nc1n2Cc1ccc(OC)c(OC)c1 | inconclusive: 3.16 µM [cytotoxic, partial curve] | –
31 | CCN(C(=O)C1CCC(CNS(=O)(=O)c2cccc3nsnc23)CC1)c1ccc(C)c(C)c1 (stereo not drawn) | inconclusive: 31.6 µM [cytotoxic, single point] | –
32 | COc1ccc(NC(=O)Nc2nnc(C)s2)cc1 | inconclusive: 20 µM [cytotoxic, partial curve, poor fit] | –
33 | CC(=O)N1CCOc2cc(S(=O)(=O)NC(C)c3ccccc3)c(Cl)cc21 (stereo not drawn) | inconclusive: 25.1 µM [cytotoxic, single point] | –
34 | COc1ccccc1CNc1nc(-c2ccccc2OC)nc2ccccc12 | – | inactive: 3.97%
35 | Cc1oc2ccc(O)c(CN(C)Cc3ccccc3)c2c1C(=O)Nc1ccccc1 | inconclusive: 1.26 µM [cytotoxic, full curve, poor fit] | –
36 | O=C(Nc1ccc2nc[nH]c2c1)c1ccco1 | inconclusive: 10 µM [cytotoxic, partial curve] | –
37 | O=C(NC1CC1)c1cccc(Nc2ccc(-c3ccc4c(c3)OCCO4)nn2)c1 | active: 10 µM | –
38 | O=C(CCS(=O)(=O)c1nc(-c2cccs2)cc(C(F)(F)F)n1)Nc1ccc(OC(F)(F)F)cc1 | inconclusive: 31.6 µM [cytotoxic, single point] | –
39 | Cn1c(=O)c(-c2ccc(Cl)cc2)nc2cnc(Oc3cccc(Cl)c3)nc21 | inconclusive: 15.8 µM [cytotoxic, single point] | –
40 | CCOc1ccc2nc(N3CCN(C(=O)CS(=O)(=O)c4ccc(F)cc4)CC3)sc2c1 | active: 6.31 µM | –
41 | CCOc1ccc(OCC)c(NC(=O)C2CCCN(S(=O)(=O)c3ccc4c(c3)oc(=O)n4C)C2)c1 (stereo not drawn) | – | inactive: 7.51%
42 | O=C(Nc1ccc(F)c(Cl)c1)N1CCN(C(=O)c2nsc3ccccc23)CC1 | – | inactive: -8.09%
43 | O=c1c2cc3c(cc2nc2sc(Nc4ccc(F)cc4F)nn12)OCO3 | inconclusive: 2 µM [cytotoxic, partial curve, poor fit] | –
44 | COc1ccc(OCCn2c(C3CC(=O)N(c4ccc(F)cc4)C3)nc3ccccc32)cc1 (stereo not drawn) | – | inconclusive: -35.3% [cytotoxic]
45 | COc1ccccc1Nc1cc(C)nc2nc(-c3ccccc3)nn12 | inconclusive: 12.6 µM [cytotoxic, partial curve] | –
46 | Cc1ccc(NC(=O)c2ccc(NC(=O)N3CCSc4ncccc43)cc2)cc1Cl | inconclusive: 20 µM [cytotoxic, partial curve, poor fit] | –

Row | Compound | Potency | activity change, negative = cell killing
47 | COc1ccc2cc(CCC(C)=O)ccc2c1 | inconclusive: 15.8 µM [cytotoxic, partial curve] | –
48 | O=C(/C=C/Nc1ccc(F)cc1F)c1cccs1 | inconclusive: 10 µM [cytotoxic, partial curve] | –
49 | O=C(Cn1c(=O)n2nc(-c3ccccc3)nc2c2ccccc21)Nc1ccccc1C(F)(F)F | – | inactive: 13.8%
50 | COc1cccc(OC)c1-c1nn2c(-c3cc(-c4ccccc4)n[nH]3)nnc2s1 | – | inactive: 5.17%
51 | O=C(Nc1ccc(-c2noc(-c3cccs3)n2)cc1)c1cccnc1 | inconclusive: 15.8 µM [cytotoxic, single point] | –
52 | Cc1ccc(NC2=C(c3ccc(C(F)(F)F)cc3)C(=O)c3ccccc32)cc1F | inconclusive: 31.6 µM [cytotoxic, single point] | –
53 | CC(=O)c1cc(-c2ccc(F)cc2)n(CCC(=O)NCc2ccccc2C)c1C | – | inactive: -17%
54 | Cc1ccc(-c2nc3scc(CCNC(=O)c4cccc(Br)c4)n3n2)cc1 | inconclusive: 25.1 µM [cytotoxic, single point] | –
55 | Clc1ccc(OCc2nn3c(-c4ccco4)nnc3s2)c(Cl)c1 | – | inactive: -12.7%
56 | COc1ccccc1NC(=O)CSc1nnc(-c2cccc(Cl)c2)o1 | inconclusive: 14.1 µM [cytotoxic, single point] | –
57 | Brc1csc(CN2CCc3nc(Nc4ccccc4)ncc3C2)c1 | inconclusive: 20 µM [cytotoxic, partial curve, poor fit] | –
58 | Cc1cccc(Cn2c(SCc3ccc(C(=O)N4CCCCCC4)cc3)nc3ccncc32)c1 | inconclusive: 17.8 µM [cytotoxic, single point] | –
59 | CCN(C(=O)Cn1c(C(=O)OC)cc2oc3ccccc3c21)c1cccc(C)c1 | – | inactive: -1.27%
60 | COc1ccccc1-c1nc(-c2ccc(Br)cc2)no1 | inconclusive: 31.6 µM [cytotoxic, single point] | –
61 | Cc1ccc(Cn2c(=O)n(CCCCC(=O)NCCc3ccc(Cl)cc3)c(=O)c3ccccc32)cc1 | inconclusive: 10 µM [cytotoxic, partial curve] | –
62 | COc1ccc(-c2nc3cnc(N(C)C)nc3n(C)c2=O)cc1 | inconclusive: 6.31 µM [cytotoxic, partial curve] | –
63 | O=C(NC1=NCCS1)c1ccc(-c2ccc(Cl)cc2)o1 | inconclusive: 12.6 µM [cytotoxic, partial curve] | –
64 | CSc1cccc(NC(=O)CSc2nc3ccccc3o2)c1 | inconclusive: 12.6 µM [cytotoxic, single point] | –
65 | COc1ccccc1-c1cc(C(F)(F)F)nc(S(=O)(=O)CCCC(=O)N2CCCCC2C)n1 (stereo not drawn) | inconclusive: 31.6 µM [cytotoxic, single point] | –
66 | COC(=O)[C@@]1(Cc2ccc(F)cc2)[C@H]2c3cc(C(=O)N4CCCC4)n(CCSCCO)c3C[C@H]2CN1C(=O)c1ccccc1 | – | inactive: -3.28%
67 | O=C(Nc1cccc(Cl)c1)c1ccc2c(=O)n3c(nc2c1)CCCCC3 | inconclusive: 12.6 µM [cytotoxic, partial curve] | –
68 | COC(=O)CCC(=O)c1oc2ccc(Br)cc2c1N | inconclusive: 10 µM [cytotoxic, single point] | –
